{"source": "PubChem BioAssay AID588855", "about": "(National Center for Advancing Translational Sciences (NCATS), 2011)", "note": "Among all 410,000 compounds or so, about 5,000 (1.2%) were called active. Inconclusive results, whose numbers are uncertain, are shown with a selection of clear calls. The call rests on the fitted dose curve; in most records, active means well fitted inhibition curve with a large enough effect; inconclusive means small, poorly fitted or top-dose-only effect; inactive means no such curve, though single readings can be large or run the other way. Where the call is inconclusive, the potency comes from a doubtful curve fit. Potency means the concentration at half of the fitted maximal effect; tags describe the fitted curve by direction and shape.", "data": [{"experiment": "qHTS for Inhibitors of TGF-b; further: nearly all actives have a fitted effect of over 65% in size", "details": "HepG2 CAGA-GFP TGF-b/SMAD3 reporter, GFP fluorescence, 18 h, TGF-beta stimulated, 500 pg/mL final; series mostly up to 46.1 µM", "procedure,_shortened": "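Per well, imaged GFP fluorescence of HEPG2 CAGA-GFP cells gives the signal; cells get compound, then TGF-beta (500 pg/mL final), 18 h at 37 degrees C; %Activity versus -TGF-beta and +DMSO controls.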", "values": [{"compound": "CC(=O)Nc1ccc(CNc2nc(NC(C)C)nc3cc(-c4ccccc4)sc23)cc1", "Potency": "inconclusive: 12.6 µM [inhibitor, partial curve, poor fit]"}, {"compound": "COc1ccc(CN2CCC(N3CCC(C(=O)N4CCOCC4)CC3)CC2)c(F)c1", "Potency": "inconclusive: 0.891 µM [inhibitor, partial curve, poor fit]"}, {"compound": "CC1CC(C)CN(CC(O)COCc2ccccc2)C1", "note": "(stereo not given)", "Potency": "inactive"}, {"compound": "CCN(CC)CCNC(=O)c1cc2c(s1)-c1ccccc1SC2", "Potency": "inconclusive: 17.8 µM [inhibitor, single point]"}, {"compound": "COc1cccc(-n2nc(C(C)=O)c(=O)[nH]c2=O)c1", "Potency": "inactive"}, {"compound": "COc1ccc(OCC(=O)Nc2cccc(-c3nc4ccccc4o3)c2)cc1", "Potency": "inactive"}, {"compound": "O=C(c1ccc(COCC(F)(F)F)o1)N1CCCC1", "Potency": "inactive"}, {"compound": "CCOC(=O)c1c(NC(=O)c2cccnc2)sc(C)c1C", "Potency": "inactive"}, {"compound": "Cc1cc(C)c(NC(=O)CSc2nc3ccccc3nc2N2CCCCC2)c(C)c1", "Potency": "inactive"}, {"compound": "Cc1ccc(-c2nnc(Nc3cccc(Cl)c3)c3ccccc23)cc1S(=O)(=O)N1CCOCC1", "Potency": "inconclusive: 7.08 µM [inhibitor, partial curve, poor fit]"}, {"compound": "Cc1ccccc1-c1cc(C(=O)Nc2sc(C)c(C)c2C(N)=O)c2ccccc2n1", "Potency": "inconclusive: 35.5 µM [inhibitor, partial curve, poor fit]"}, {"compound": "Cc1cc(C)c2cc(C(=O)N3CCC(C(=O)c4ccc(F)cc4)CC3)[nH]c2c1", "Potency": "active: 11.2 µM"}, {"compound": "COc1cccc(/C=C/C(=O)OCC(=O)NCC2CCCO2)c1OC", "note": "(stereo not given)", "Potency": "inactive"}, {"compound": "Cc1ccc2[nH]c3nc(SCCN4CCOCC4)nnc3c2c1", "Potency": "inactive"}, {"compound": "O=C(c1cnn2c(C(F)F)cc(-c3ccccc3)nc12)N1CCN(Cc2ccc3c(c2)OCO3)CC1", "Potency": "inconclusive: 17.8 µM [inhibitor, single point]"}, {"compound": "Oc1ccc(-c2nccs2)cc1", "Potency": "inactive"}, {"compound": "COc1ccc(OC)c(NC(=O)CN(C)S(=O)(=O)c2ccc(C(=O)N3CCOCC3)s2)c1", "Potency": "inconclusive: 0.126 µM [inhibitor, full curve, poor fit]"}, {"compound": "O=C(C=Cc1ccc2c(c1)OCO2)c1ccccc1", "Potency": "inconclusive: 31.6 µM [inhibitor, single point]"}, {"compound": "Cc1cccc(C(=O)NNC(=O)c2ccccc2O)c1", "Potency": "inconclusive: 31.6 µM [inhibitor, single point]"}, {"compound": "Cc1cc(C)c2c(c1)-c1c(ssc1=S)C(C)(C)N2C(=O)CSc1nncn1C", "Potency": "active: 6.31 µM"}, {"compound": "COc1ccc(CC(=O)Nc2ccncc2Cl)cc1", "Potency": "inactive"}, {"compound": "CCOc1ccc(CNC(=O)C2CCN(S(=O)(=O)N3CCCCC3)CC2)cc1", "Potency": "inconclusive: 35.5 µM [inhibitor, single point]"}, {"compound": "O=C(N/N=C/c1c(Cl)cccc1Cl)c1ccc(-n2cnnn2)cc1", "Potency": "inactive"}, {"compound": "Cc1cc(NC(=O)Nc2cccc(Cl)c2)n(-c2ccccn2)n1", "Potency": "inconclusive: 11.2 µM [inhibitor, partial curve, poor fit]"}, {"compound": "CC1=C(C(=O)OCC2CCCCC2)C(c2ccc(O)cc2)NC(=O)N1", "note": "(stereo not given)", "Potency": "inactive"}, {"compound": "CSCCC1NC(=S)N(Cc2ccccc2)C1=O", "note": "(stereo not given)", "Potency": "inconclusive: 35.5 µM [inhibitor, single point]"}, {"compound": "COCCNC(=O)CSc1c2c(nc3cc(Cl)ccc13)CCCC2", "Potency": "inconclusive: 25.1 µM [inhibitor, single point]"}, {"compound": "CC(=O)N1C2=CCCC3CCCCC23c2ccccc21", "note": "(stereo not given)", "Potency": "inactive"}, {"compound": "CN(C(=O)C1CCCN(c2ncnc3c2nc2n3CCCCC2)C1)c1cccc(Cl)c1", "note": "(stereo not given)", "Potency": "inconclusive: 35.5 µM [inhibitor, single point]"}, {"compound": "Cc1ccc(C(=O)/C=C/c2ccc3c(c2)OCCO3)c(O)c1", "Potency": "inactive"}, {"compound": "CCOc1cc(CNc2ccc(CNc3ncn[nH]3)cc2)ccc1OCc1ccccc1", "Potency": "inconclusive: 35.5 µM [inhibitor, single point]"}, {"compound": "CCCCCCSc1ccc(-c2nc3ccc(C)cn3c2NCc2ccccc2)cc1OC", "Potency": "inconclusive: 35.5 µM [inhibitor, single point]"}, {"compound": "O=C1C(Cl)=C(N2CCCCC2)C(=O)N1Cc1ccccc1", "Potency": "inconclusive: 35.5 µM [inhibitor, single point]"}, {"compound": "OCC1(Cc2ccccc2F)CCCN(CCc2ccccc2)C1", "note": "(stereo not given)", "Potency": "inactive"}, {"compound": "COc1ccc(C(C)(O)c2nc(-c3ccc(C)c(C)c3)cs2)cc1", "note": "(stereo not given)", "Potency": "inconclusive: 2.82 µM [inhibitor, partial curve]"}, {"compound": "CCn1cc(S(=O)(=O)c2ccc(OC)cc2)c(=O)c2cc(F)c(N3CCC(C)CC3)cc21", "Potency": "inconclusive: 35.5 µM [inhibitor, single point]"}, {"compound": "CCCN(CCC)CCCNC(=O)C1CCC(CNS(=O)(=O)c2cccc3nsnc23)CC1", "note": "(stereo not given)", "Potency": "inactive"}, {"compound": "Cc1ccc(CN(Cc2ccco2)C(=O)COc2c(C)cc(C)cc2C)cc1", "Potency": "inconclusive: 35.5 µM [inhibitor, single point]"}, {"compound": "COc1ccc([C@H]2CC(=O)C=C(c3ccc(Cl)c(F)c3)C2)cc1", "Potency": "inconclusive: 22.4 µM [inhibitor, single point]"}, {"compound": "CCOC(=O)C1CCN(C(=O)c2ccc3c(Cl)c4c(nc3c2)CCCC4)CC1", "Potency": "inconclusive: 5.62 µM [inhibitor, single point]"}, {"compound": "OCCC#Cc1ccc(CN2CCN(Cc3ccccc3)C(CCO)C2)cc1", "note": "(stereo not given)", "Potency": "inactive"}, {"compound": "Cc1cc(C)cc(N=c2c([N+](=O)[O-])nn(-c3ccc4c(c3)OCCO4)n2O)c1", "Potency": "inconclusive: 3.98 µM [inhibitor, full curve]"}, {"compound": "COCCNC(=O)c1cccc(OC2CCN(C(C)COc3ccccc3)CC2)c1", "note": "(stereo not given)", "Potency": "inconclusive: 17.8 µM [inhibitor, single point]"}, {"compound": "C=CCn1c(O)c(N=NC(=S)Nc2cccc(C)c2)c2ccccc21", "Potency": "inconclusive: 7.08 µM [inhibitor, partial curve]"}, {"compound": "CC(C)Cn1c(N)c(C(=O)COC(=O)c2cccnc2Cl)c(=O)n(C)c1=O", "Potency": "inconclusive: 2.51 µM [inhibitor, full curve, poor fit]"}, {"compound": "Cc1ncoc1C(=O)N1CCCC(C(=O)c2ccc(-c3ccccc3)cc2)C1", "note": "(stereo not given)", "Potency": "inactive"}, {"compound": "O=C1Cc2c([nH]c3ccc(Br)cc23)-c2ccccc2N1", "Potency": "active: 2.82 µM"}, {"compound": "Cc1ccccc1Cn1nc(C)c(NC(=O)c2noc3c2CC(C(C)(C)C)CC3)c1C", "note": "(stereo not given)", "Potency": "inconclusive: 20 µM [inhibitor, single point]"}, {"compound": "O=C(Nc1ccccc1)C1=C[C@H](c2coc3ccccc3c2=O)C[C@H](OCCCCO)O1", "Potency": "inactive"}, {"compound": "Cc1cccc(-n2ncc3c2CCCC3NC(=O)Cc2c(C)noc2C)c1C", "note": "(stereo not given)", "Potency": "inactive"}, {"compound": "CCOc1ccc(-c2csc(NNC3=NCCCCC3)n2)cc1", "Potency": "inactive"}, {"compound": "O=C(NC(c1ccc(-c2ccccc2)cc1)c1cnccn1)C1CCN(Cc2ccc(Cl)c(Cl)c2)CC1", "note": "(stereo not given)", "Potency": "inconclusive: 11.2 µM [inhibitor, partial curve, poor fit]"}, {"compound": "OCCN=c1cc(-c2ccccc2)oc2ccc(Cl)cc12", "Potency": "inconclusive: 17.8 µM [inhibitor, single point]"}, {"compound": "O=C(CSc1nncn1-c1ccccc1)Nc1ccc(F)cc1F", "Potency": "inactive"}, {"compound": "Cc1ccc(Sc2c([N+](=O)[O-])c(=O)n(C)c3ccccc23)cc1", "Potency": "inconclusive: 3.16 µM [inhibitor, full curve]"}, {"compound": "CCCCN(CCCNC(=O)CN1N=C(c2ccccc2)CCC1=O)c1ccccc1", "Potency": "inconclusive: 22.4 µM [inhibitor, single point]"}, {"compound": "Cc1ccc(CC2(OCCN(C)C)CCC(C(C)(C)C)CC2)cc1", "note": "(stereo not given)", "Potency": "inconclusive: 15.8 µM [inhibitor, single point]"}, {"compound": "CCN(CC)S(=O)(=O)c1ccc(OC)c(NC(=O)OCc2ccccc2)c1", "Potency": "inactive"}, {"compound": "O=C(CSc1nnc(SCc2ccc(Cl)cc2)s1)N/N=C/c1c[nH]c2ccccc12", "Potency": "inconclusive: 3.55 µM [inhibitor, single point]"}, {"compound": "CC(C)N(C(=O)[C@H]1C[C@H](CC(=O)NCCCN(C)C)C(=O)N2CCc3c([nH]c4ccc(Cl)cc34)[C@]12C)C(C)C", "Potency": "inconclusive: 35.5 µM [inhibitor, single point]"}, {"compound": "CC(C)(C)c1cc(C(=O)NNc2ccc(OC(F)(F)F)cc2)n(Cc2ccccc2)n1", "Potency": "inconclusive: 31.6 µM [inhibitor, single point]"}, {"compound": "CC(C)c1ccc(S(=O)(=O)N2CCN(C(=S)NCc3ccco3)CC2)cc1", "Potency": "inconclusive: 15.8 µM [inhibitor, single point]"}, {"compound": "Cc1cc(OCC(O)CN2CCc3ccccc3C2)ccc1Cl", "note": "(stereo not given)", "Potency": "inconclusive: 35.5 µM [inhibitor, single point]"}, {"compound": "Cc1coc2c1C(=O)C(=O)c1c-2ccc2c1CCCC2(C)C", "Potency": "inconclusive: 5.01 µM [inhibitor, full curve, poor fit]"}, {"compound": "CN1OC[C@@H]2CN(Cc3ccccc3)[C@H](c3cccc(-c4ccccc4)c3)C[C@@H]21", "Potency": "inconclusive: 35.5 µM [inhibitor, single point]"}, {"compound": "Clc1ccc(Nc2ccc(NCc3ccccc3)nn2)cc1", "Potency": "inconclusive: 25.1 µM [inhibitor, single point]"}, {"compound": "O=C(Nc1cccc(F)c1)c1coc(=O)c(Br)c1", "Potency": "inconclusive: 35.5 µM [inhibitor, single point]"}, {"compound": "O=C(Nc1ccccc1F)c1ccc([N+](=O)[O-])s1", "Potency": "inconclusive: 35.5 µM [inhibitor, single point]"}, {"compound": "CCCCC(=O)NC(c1ccccc1)c1ccc2cccnc2c1O", "note": "(stereo not given)", "Potency": "inconclusive: 1.26 µM [inhibitor, full curve, poor fit]"}, {"compound": "Cc1cccc(N2CCN(C(=O)c3ccc4c(c3)N(Cc3ccccc3F)C(=O)c3ccccc3S4=O)CC2C)c1", "note": "(stereo not given)", "Potency": "inconclusive: 12.6 µM [inhibitor, partial curve, poor fit]"}]}]}
